Consider 20 test systems from the supplement of paper PMC6657886.

Common to all, as to experiment: Agar dilution on enriched GC agar; resistance determinants by microarray.
Compound in assay [1]: CC1(C)S[C@@H]2[C@H](NC(=O)Cc3ccccc3)C(=O)N2[C@H]1C(=O)O [benzylpenicillin]
Compound in assay [2]: CC[C@H]1OC(=O)[C@H](C)[C@@H](O[C@H]2C[C@@](C)(OC)[C@@H](O)[C@H](C)O2)[C@H](C)[C@@H](O[C@@H]2O[C@H](C)C[C@H](N(C)C)[C@H]2O)[C@](C)(O)C[C@@H](C)CN(C)[C@H](C)[C@@H](O)[C@]1(C)O [azithromycin]
Compound in assay [3]: CN(C)[C@@H]1C(O)=C(C(N)=O)C(=O)[C@@]2(O)C(O)=C3C(=O)c4c(O)cccc4[C@@](C)(O)[C@H]3C[C@@H]12 [tetracycline]
Compound in assay [4]: CN[C@@H]1[C@H](O)[C@H](NC)[C@H]2O[C@@]3(O)C(=O)C[C@@H](C)O[C@H]3O[C@@H]2[C@H]1O [spectinomycin]
Compound in assay [5]: CO/N=C(\C(=O)N[C@@H]1C(=O)N2C(C(=O)O)=C(CSc3nc(=O)c(O)nn3C)CS[C@H]12)c1csc(N)n1 [ceftriaxone]

MIC of clinical N. gonorrhoeae isolates (2015-2017) by agar dilution on GC agar with 1% IsoVitaleX (ranges not stated); higher = less susceptible. No active / inactive call per row; the paper counts benzylpenicillin above 1 and ceftriaxone above 0.125 mg/L as resistant (EUCAST). The method is stated for benzylpenicillin and ceftriaxone and assumed for the other drugs. '<=' is inferred from pile-ups at the end values. Isolates are numbered anew.

Regarding “Neisseria gonorrhoeae isolate 123 (blaTEM plasmid: no, gyrA: wild type, mtrR promoter: wild type, parC: wild type, penA: ins345Asp, ponA: wild type, porB: wild type, rpsJ: wild type, tetM plasmid: no)”, the MIC (as a rule, the lowest concentration found to suppress growth) in assay [1] was ≤ 0.015 µg/mL; in assay [2], 0.015 µg/mL; in assay [3] it was 0.06 µg/mL; in assay [4], 32 µg/mL; in assay [5] it was 0.004 µg/mL.
The matching figures for “Neisseria gonorrhoeae isolate 257 (blaTEM plasmid: no, gyrA: wild type, mtrR promoter: wild type, parC: wild type, penA: ins345Asp, ponA: wild type, porB: Lys120, Asn121, rpsJ: Met57, tetM plasmid: no)”: 0.5 µg/mL, 0.25 µg/mL, 4 µg/mL, 16 µg/mL and 0.004 µg/mL.
Consider “Neisseria gonorrhoeae isolate 161 (blaTEM plasmid: no, gyrA: wild type, mtrR promoter: wild type, parC: wild type, penA: ins345Asp, ponA: wild type, porB: wild type, rpsJ: Met57, tetM plasmid: no)”, for which the MIC in assay [1] was 0.03 µg/mL; in assay [2], 0.25 µg/mL; in assay [3], 0.5 µg/mL; in assay [4] it was 16 µg/mL; in assay [5], ≤ 0.002 µg/mL.
For the test system “Neisseria gonorrhoeae isolate 495 (blaTEM plasmid: no, gyrA: Phe91, Gly95, mtrR promoter: -35delA, parC: Arg87, Glu91, penA: ins345Asp, ponA: Pro421, porB: Asn120, Asp121, rpsJ: Met57, tetM plasmid: no)”, the minimal inhibitory concentration (MIC) came to 0.5 µg/mL in assay [1]; 0.03 µg/mL in assay [2]; 2 µg/mL in assay [3]; 32 µg/mL in assay [4]; 0.008 µg/mL in assay [5].
For “Neisseria gonorrhoeae isolate 366 (blaTEM plasmid: yes, gyrA: Phe91, Asn 95, mtrR promoter: wild type, parC: Asn87, Lys91, penA: ins345Asp, ponA: Pro421, porB: wild type, rpsJ: Met57, tetM plasmid: no)”, the MIC in assay [1] was ≥ 32 µg/mL; in assay [2], 0.12 µg/mL; in assay [3], 1 µg/mL; in assay [4], 32 µg/mL; in assay [5], 0.125 µg/mL.
In the case of “Neisseria gonorrhoeae isolate 390 (blaTEM plasmid: no, gyrA: Ser91, Asn95, mtrR promoter: wild type, parC: Arg87, Glu91, penA: ins345Asp, ponA: Pro421, porB: wild type, rpsJ: Met57, tetM plasmid: no)”, the minimum inhibitory concentration (MIC) stood at 0.12 µg/mL in assay [1]; 0.12 µg/mL in assay [2]; 0.5 µg/mL in assay [3]; 16 µg/mL in assay [4]; 0.004 µg/mL in assay [5].
With “Neisseria gonorrhoeae isolate 21 (blaTEM plasmid: no, gyrA: Phe91, Gly95, mtrR promoter: wild type, parC: Arg87, Glu91, penA: ins345Asp, ponA: Pro421, porB: wild type, rpsJ: Met57, tetM plasmid: no)”, the MIC in assay [1] is 0.5 µg/mL; in assay [2], 0.12 µg/mL; in assay [3], 0.25 µg/mL; in assay [4], 32 µg/mL; in assay [5] it was ≤ 0.002 µg/mL.
Take “Neisseria gonorrhoeae isolate 216 (blaTEM plasmid: no, gyrA: Phe91, Asn95, mtrR promoter: -35delA, parC: Arg87, Glu91, penA: ins345Asp, ponA: Pro421, porB: Thr 120, Asn 121, rpsJ: Met57, tetM plasmid: no)”: the MIC in assay [1] was determined as 1 µg/mL; in assay [2] it was 0.5 µg/mL; in assay [3] it was 1 µg/mL; in assay [4], 32 µg/mL; in assay [5], 0.03 µg/mL.
As to “Neisseria gonorrhoeae isolate 457 (blaTEM plasmid: no, gyrA: Phe91, Asn95, mtrR promoter: wild type, parC: Arg87, Glu91, penA: ins345Asp, ponA: Pro421, porB: wild type, rpsJ: Met57, tetM plasmid: no)”, the MIC is 0.12 µg/mL in assay [1]; 0.12 µg/mL in assay [2]; 0.5 µg/mL in assay [3]; 16 µg/mL in assay [4]; ≤ 0.002 µg/mL in assay [5].
On to “Neisseria gonorrhoeae isolate 97 (blaTEM plasmid: no, gyrA: Phe91, Gly95, mtrR promoter: -35delA, parC: Arg87, Glu91, penA: ins345Asp, ponA: Pro421, porB: wild type, rpsJ: Met57, tetM plasmid: no)”, for which the MIC in assay [1] is 0.12 µg/mL; in assay [2], 0.5 µg/mL; in assay [3], 1 µg/mL; in assay [4] it was 16 µg/mL; in assay [5] it was 0.004 µg/mL.
The matching figures for “Neisseria gonorrhoeae isolate 53 (blaTEM plasmid: no, gyrA: Phe91, Gly95, mtrR promoter: wild type, parC: Arg87, Glu91, penA: ins345Asp, ponA: Pro421, porB: Asp120, Ala121, rpsJ: Met57, tetM plasmid: no)”: 0.25 µg/mL, 0.015 µg/mL, 0.5 µg/mL, 32 µg/mL and 0.015 µg/mL.
The matching figures for “Neisseria gonorrhoeae isolate 370 (blaTEM plasmid: no, gyrA: wild type, mtrR promoter: wild type, parC: wild type, penA: ins345Asp, ponA: wild type, porB: wild type, rpsJ: Met57, tetM plasmid: no)”: 0.12 µg/mL, 0.06 µg/mL, 0.5 µg/mL, 16 µg/mL and ≤ 0.002 µg/mL.
The matching figures for “Neisseria gonorrhoeae isolate 251 (blaTEM plasmid: no, gyrA: Phe91, Gly95, mtrR promoter: wild type, parC: Arg87, Glu91, penA: ins345Asp, ponA: Pro421, porB: Asp120, Ala121, rpsJ: Met57, tetM plasmid: no)”: 0.25 µg/mL, 0.015 µg/mL, 0.5 µg/mL, 32 µg/mL and 0.004 µg/mL.
For the test system “Neisseria gonorrhoeae isolate 265 (blaTEM plasmid: no, gyrA: wild type, mtrR promoter: wild type, parC: wild type, penA: wild type, ponA: wild type, porB: wild type, rpsJ: wild type, tetM plasmid: no)”, the MIC in assay [1] is ≤ 0.015 µg/mL; in assay [2], 0.25 µg/mL; in assay [3], 0.06 µg/mL; in assay [4], 16 µg/mL; in assay [5], ≤ 0.002 µg/mL.
The matching figures for “Neisseria gonorrhoeae isolate 156 (blaTEM plasmid: no, gyrA: Phe91, Gly95, mtrR promoter: wild type, parC: wild type, penA: wild type, ponA: wild type, porB: wild type, rpsJ: wild type, tetM plasmid: yes)”: 0.5 µg/mL, 0.03 µg/mL, 8 µg/mL, 32 µg/mL and 0.008 µg/mL.
The matching figures for “Neisseria gonorrhoeae isolate 424 (blaTEM plasmid: no, gyrA: wild type, mtrR promoter: wild type, parC: wild type, penA: ins345Asp, ponA: wild type, porB: wild type, rpsJ: Met57, tetM plasmid: no)”: 0.25 µg/mL, 0.03 µg/mL, 0.5 µg/mL, 4 µg/mL and ≤ 0.002 µg/mL.
In the case of “Neisseria gonorrhoeae isolate 203 (blaTEM plasmid: no, gyrA: Phe91, Asn95, mtrR promoter: -35delA, parC: Arg87, Glu91, penA: ins345Asp, ponA: Pro421, porB: wild type, rpsJ: Met57, tetM plasmid: no)”, the MIC is 1 µg/mL in assay [1]; 1 µg/mL in assay [2]; 1 µg/mL in assay [3]; 32 µg/mL in assay [4]; 0.008 µg/mL in assay [5].
For the test system “Neisseria gonorrhoeae isolate 299 (blaTEM plasmid: no, gyrA: Phe91, Asn95, mtrR promoter: -35delA, parC: Arg87, Glu91, penA: ins345Asp, ponA: Pro421, porB: wild type, rpsJ: Met57, tetM plasmid: no)”, the MIC worked out at 0.5 µg/mL in assay [1]; 0.06 µg/mL in assay [2]; 1 µg/mL in assay [3]; 32 µg/mL in assay [4]; 0.004 µg/mL in assay [5].
The matching figures for “Neisseria gonorrhoeae isolate 82 (blaTEM plasmid: no, gyrA: wild type, mtrR promoter: wild type, parC: wild type, penA: ins345Asp, ponA: wild type, porB: wild type, rpsJ: wild type, tetM plasmid: no)”: 0.12 µg/mL, 0.015 µg/mL, 0.06 µg/mL, 32 µg/mL and 0.001 µg/mL.
On to “Neisseria gonorrhoeae isolate 369 (blaTEM plasmid: no, gyrA: Phe91, Asp95, mtrR promoter: -35delA, parC: Arg87, Glu91, penA: ins345Asp, ponA: Pro421, porB: Asp120, Ala121, rpsJ: Met57, tetM plasmid: no)”, for which the MIC in assay [1] was found to be 0.06 µg/mL; in assay [2], 0.5 µg/mL; in assay [3] it was 4 µg/mL; in assay [4] it was 16 µg/mL; in assay [5], 0.008 µg/mL.
